The source of these data is patent US8889672B2, “Compounds, formulations, and methods of protein kinase C inhibition” (The Regents of The University of Michigan, priority 2011, dated 2014).

This experiment relates to retinal vascular permeability. The experiment in a line: In vivo permeability assay (retinal Evan's blue accumulation after intra-vitreal VEGF). The following applies: estimated vitreous concentration 25 μM, with 50 ng VEGF.

As to `CC(C)OC(=O)c1c(-c2ccc(Cl)c(Cl)c2)csc1N` [PKCζl-diCl, isopropyl 2-amino-4-(3,4-dichlorophenyl)thiophene-3-carboxylate], the “VEGF-induced accumulation of Evan's blue in the retina” value is given as “prevented this effect”.
